# From PubChem BioAssay AID1508623 (National Center for Advancing Translational Sciences (NCATS), 2021)
# Out of some 48,000 compounds screened, about 450 (0.94%) were called active. Roughly 19% stayed inconclusive and do not appear here. The call rests on the fitted dose curve; in most records, active means well fitted inhibition curve with a large enough effect; inconclusive means small, poorly fitted or top-dose-only effect; inactive means no such curve, though single readings can be large or run the other way. The list shows a part of the results.
# Experiment: Primary qHTS for Identification of Small Molecule Inhibitors of Huntingtin Promoter Activity; further: nearly all actives have a fitted effect of over 50% in size
# Settings: HEK293 HTT promoter firefly luciferase reporter (activity 0% = vehicle and -100% = no light), 24 h; series mostly up to 57.5 µM; activity change, negative = inhibition: at the top concentration
# In short: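 Luminescence was read after Dual-Glo reagent and a 10 min room-temperature incubation. Values were normalized to vehicle (0% activity) and zero RLU (-100% activity). Reporter HEK293 cells had been exposed to compounds (up to 57.5 uM final) for 24 h.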
# Potency means the concentration at half of the fitted maximal effect.
Structure (SMILES),"activity change, negative = inhibition",Potency
Cc1cc(C)c2c(=O)cc(C(=O)Nc3ccc(C)c(Cl)c3)oc2c1,inactive: -3.63%,
CCOC(=O)Cn1c(C2CC(=O)N(c3ccc(C)cc3)C2)nc2ccccc21 (configuration not stated),inactive: -14.1%,
CCC(=O)N1c2ccccc2CC1C(=O)NCCc1ccc(SC)cc1 (configuration not stated),inactive: -2.59%,
Cc1ccccc1OCCn1cc(C(=O)C2CCCCC2)c2ccccc21,inactive: -3.26%,
Cc1ccc(C)c(N2CCN(C(=O)Cn3cnc4sc(C)c(S(=O)(=O)N5CCN(c6ncccn6)CC5)c4c3=O)CC2)c1,inactive: -17.6%,
CCNC(=O)N1CCN(CCCC(c2ccc(F)cc2)c2ccc(F)cc2)CC1,inactive: -16.9%,
O=[N+]([O-])c1ccc(C(c2sc3nc(-c4ccco4)nn3c2O)N2CCN(Cc3ccccc3)CC2)cc1 (configuration not stated),inactive: 0%,
CCOC(=O)c1c(C)[nH]c(C)c1S(=O)(=O)NCC(=O)Nc1cc(Cl)ccc1OC,inactive: -16.8%,
CC(C)C[C@H](CC(=O)O)C(=O)N[C@@H](Cc1c[nH]c2ccccc12)C(=O)N[C@@H](C)c1ccccc1,inactive: -0.819%,
CC(=O)c1ccc(NC(=O)COc2ccccc2-c2nc(C(C)C)no2)cc1,inactive: 0.608%,
CCOC(=O)C1CCN(S(=O)(=O)c2cc(-c3cc(C)no3)ccc2OC)CC1,inactive: -25%,
O=C(COc1ccccc1)Nc1nnc2n1CCS2,inactive: 6.86%,
Cc1ccc(NC(=O)C(Cc2ccccc2)NS(=O)(=O)c2ccc3c(c2)oc(=O)n3C)cc1C (configuration not stated),inactive: -16%,
CC(C)(C)C(=O)Cn1c(=O)n(CCCCCC(=O)NCc2ccccc2Cl)c(=O)c2sccc21,inactive: -28.3%,
COc1cc(OC)cc(-c2nc3nc(C)c(CCC(=O)Nc4ccccc4)c(C)n3n2)c1,inactive: -10.2%,
CC(=O)c1ccc(N2CCN(C(=O)Nc3cn(CC(C)C)c(=O)c4ccccc34)CC2)cc1,inactive: 2.15%,
Cc1ccc(C)c(NC(=O)CSc2nnc(NC(=O)Nc3ccccc3)s2)c1,inactive: -8.06%,
CCN1CCN(Cc2nc3cc(NC(=O)c4cccc([N+](=O)[O-])c4)ccc3n2CC)CC1,inactive: -7.36%,
CCc1ccc(NC(=O)Cn2c(C(=O)OC)cc3oc(C)cc32)cc1,inactive: -26.9%,
CCCCCCC(=O)Nc1cc2nc3c(nc2cc1C)c(=O)n(C)c(=O)n3C,inactive: 11.4%,
CCc1ccc(C2CC(=O)c3c([nH]c(C(=O)OC4CCCCCC4)c3C)C2)cc1 (configuration not stated),inactive: -3.68%,
COc1ccc(NC(=O)CN2CCN(C3CCCCC3)C(=O)C2=O)cc1,inactive: 0.748%,
CCOC(=O)c1c(-c2ccc(Br)cc2)csc1NC(=O)c1ccc(C(C)(C)C)cc1,inactive: -11.1%,

Structure (SMILES),"activity change, negative = inhibition",Potency
Cc1ccc(CNC(=O)c2cc(=O)c3cc(C)c(C)cc3o2)cc1,inactive: -10.6%,
CC1CCCCN1Cc1c(O)ccc2c(=O)c(-c3ccc(Cl)cc3)coc12 (configuration not stated),inactive: 29.5%,
Cc1nc2c(-c3ccccc3)c(C)[nH]n2c(=O)c1Cc1ccc(Br)cc1,,active: 12.6 µM
COc1ccc(NC(=O)c2cc(=O)c3cc(C)cc(C)c3o2)cc1,inactive: 5.11% [at 11.5 µM],
COc1ccc(NC(=O)c2cc3c(=O)n(C)c4cc(Cl)ccc4c3s2)cc1Cl,inactive: -4.05%,
Cc1ccc(CCNC(=O)c2oc(=O)c3ccccc3c2-c2ccc(C)cc2)cc1,inactive: -19.5%,
CC1CCN(S(=O)(=O)c2ccc3c(ccc(=O)n3CC(=O)NCc3ccccc3)c2)CC1,inactive: -21.3%,
CCCS(=O)(=O)c1nc(S(=O)(=O)c2ccc(C)cc2)c(NCC(C)C)s1,inactive: -21.4%,
CCC(=O)Nc1ccc(C)cc1-c1nc2ccccc2n(CC(=O)c2ccc(C)cc2)c1=O,inactive: 1.63%,
CC(C)(C)OC(=O)N1CCC(c2c(C(=O)NCc3ccco3)cnn2-c2ccc(F)cc2F)CC1,inactive: -6.32%,
CCCCNC(=O)Cn1c(=O)cc(C)c2c(C)nn(-c3cccc(Cl)c3C)c21,inactive: -16.9%,
CCOC(=O)c1c(C)c(C(=O)NCc2ccc(Cl)cc2)c(C)n1C,inactive: -5.88%,
COc1ccccc1NC(=O)C1=C(C)Nc2nc(-c3ccco3)nn2C1c1cccc(C)c1 (configuration not stated),inactive: -27.3%,
CCc1ccc(-n2c(=O)c3c(C)c(C(=O)N(C)C)sc3n(CC(=O)Nc3cc(Cl)ccc3C)c2=O)cc1,inactive: 25.5%,
Cc1ccc(-c2noc(-c3ccc(NC4CCCC4)c([N+](=O)[O-])c3)n2)cc1,inactive: -2.8%,
CC(C)(C)OC(=O)N1CCC(c2nnc(SCc3ccccc3Cl)o2)CC1,inactive: -32.3%,
COc1ccc(Cl)cc1NC(=O)C(C)n1c(=O)cc(C(F)(F)F)c2c(C)nn(C)c21 (configuration not stated),inactive: -11.9%,
Cc1ccc(Cn2ccn(Cc3ccc(C)cc3)c(=O)c2=O)cc1,inactive: 3.62%,
CC1CCc2onc(C(=O)N3CCN(c4ccc(Cl)cc4)CC3)c2C1 (configuration not stated),inactive: -12.9%,
COc1ccc(N2C(=O)NC(NS(=O)(=O)c3ccc(NC(C)=O)cc3)(C(F)(F)F)C2=O)cc1 (configuration not stated),inactive: -18.7% [at 11.5 µM],
CCOc1ccc(CNC(=O)CCCn2nc(C)c3c(C)n(-c4ccc(C)cc4)nc3c2=O)cc1,inactive: -22%,
CCOC(=O)OC(C)OC(=O)[C@@H]1N2C(=O)[C@@H](NC(=O)[C@H](N)c3ccccc3)[C@H]2SC1(C)C (some centres not stated),inactive: -0.85%,
CCc1ccc(NC(=O)Cn2cnc3nc4c(cc3c2=O)CCCC4)cc1,inactive: -1.7%,

Structure (SMILES),"activity change, negative = inhibition",Potency
CCOC(=O)c1cc2c(=O)n3ccccc3nc2n(CC(C)C)c1=NC(=O)C(C)(C)Oc1ccc(Cl)cc1,inactive: -12.8%,
Cc1ccc(C)c(N2CCN(C(=O)CCc3c(C)nc4c(c3C)c(=O)n(C)c(=O)n4C)CC2)c1,inactive: 3.06%,
COc1ccccc1CNC(=O)C1CCN(c2ncnc3c2nc2n3CCCCC2)CC1,inactive: -14.1%,
COc1ccc(C(CNC(=O)c2oc3ccccc3c2C)N2CCCCC2)cc1 (configuration not stated),inactive: -10%,
CCc1ccc(-n2c3nc(=O)[nH]c(=O)c-3cc3c(C)nn(-c4ccccc4)c32)cc1,inactive: -8.84%,
Cc1noc(-c2ccc(N3CCCCC3C)c([N+](=O)[O-])c2)n1 (configuration not stated),inactive: 38.9%,
COc1cc(Cl)c(C)cc1NC(=O)c1c(C)oc2nc(C)nc(N3CCCC3)c12,inactive: 14.4%,
CCc1nnc(NC(=O)CSc2nccn2Cc2ccccc2)s1,inactive: -28.5%,
Cc1ccc(-c2noc(-c3nnn(CC(=O)Nc4ccc(C)cc4Cl)c3N)n2)cc1,inactive: -6.72%,
CCC(=O)N1CCc2cc(CNS(=O)(=O)c3ccccc3F)ccc21,inactive: 29.8%,
Cc1cc(C)cc(NS(=O)(=O)c2ccc3[nH]cc(C(=O)N4CCCCC4)c(=O)c3c2)c1,inactive: 0%,
CCOc1ccccc1CNC(=O)c1ccc2c(c1)N(CC)CCS2,inactive: -22.7%,
COc1cccc(CNC(=O)C(Cc2ccccc2)NS(=O)(=O)c2ccc3c(c2)CCN3C(C)=O)c1 (configuration not stated),inactive: -10.6%,
Cc1ccc(NC(=O)CCc2nc(-c3ccccc3F)no2)c(C)c1,inactive: -10%,
CCOc1cc2c(cc1OCC)C(CC(=O)OC)N(C(=O)Nc1cc(C)cc(C)c1)CC2 (configuration not stated),inactive: -2.98%,
Cc1cccc(OCC(=O)Nc2nnc(S(=O)(=O)N3CCCCCC3)s2)c1,inactive: -6.37%,
Cc1ccc(-n2nc(C(=O)NC(C)C)c(=O)n(C)c2=O)cc1,inactive: -1.45%,
COc1cccc(OC(=O)CSc2nnc(-c3ccccc3OC)o2)c1,inactive: -10.8%,
O=c1cc(CN2CCN(S(=O)(=O)c3ccc(Cl)cc3)CC2)nc2sc(-c3ccccc3F)nn12,inactive: -20.2%,
CCOc1ccc(NS(=O)(=O)c2ccc3[nH]cc(C(=O)NCc4ccco4)c(=O)c3c2)cc1,inactive: -7.65%,
Cc1cccc(NC(=O)c2sc3nc4n(c(=O)c3c2C)N=C(c2ccc(F)cc2)CS4)c1C,inactive: -13.6%,
Cc1ccc(C)c(N2CCN(c3nc4ccccc4c4nc(CCn5nc(C)cc5C)nn34)CC2)c1,inactive: -1.79%,
CO/N=C(\C(=O)N[C@@H]1C(=O)N2C(C(=O)O)=C(CSc3nc(=O)c(O)nn3C)CS[C@H]12)c1csc(N)n1,inactive: 11.4%,

Structure (SMILES),"activity change, negative = inhibition",Potency
O=C(CSc1nc(-c2ccc(Cl)cc2)nc2c1Cc1ccccc1O2)N1CCCCC1,inactive: -6.69%,
Cc1ccc(N2C(=O)CS(=O)(=O)C23C(=O)N(Cc2cccc(F)c2)c2ccccc23)cc1Cl (configuration not stated),inactive: -28%,
COc1ccc(Cl)cc1NC(=O)c1cc2nc(-c3ccc4c(c3)OCO4)cc(C(F)(F)F)n2n1,inactive: -2.58%,
COC(=O)Cn1c(=O)c2c(nc3n2CCN3c2cccc(C)c2)n(C)c1=O,inactive: 1.38%,
CCCCc1ccc(NC(=O)c2cc3c(=O)n4ccccc4nc3n2C)cc1,inactive: 4.65%,
COc1ccc2nc3sc(C(=O)Nc4ccccc4F)cc3cc2c1,inactive: 29.8%,
COc1ccc(NC(=O)CCCc2nc(-c3ccco3)no2)c(OC)c1,inactive: -15.1%,
CCN(CC)S(=O)(=O)c1ccc(NC(=O)[C@H](CSCc2ccccc2)N2Cc3ccccc3C2=O)cc1,inactive: 15.9%,
O=C(c1ccco1)N(Cc1cccnc1)c1nc2ccc(F)cc2s1,inactive: -12.8%,
CCc1ccc(C2C(C(=O)Nc3ccccc3)=C(C)Nc3c(C(=O)Nc4ccc(C)cc4)cnn32)cc1 (configuration not stated),inactive: -24.4%,
COc1cc(OC)cc(-c2nc3n(n2)C(c2ccccc2F)C(C(=O)Nc2cccnc2)=C(C)N3)c1 (configuration not stated),inactive: -26.6%,
Cc1ccc(S(=O)(=O)NCC(c2ccc(N(C)C)cc2)N2CCCC2)cc1 (configuration not stated),inactive: -8.24%,
Cc1cc(C)cc(NC(=O)C2CCCN(c3nnc(C)c4c(C)n(-c5ccccc5)nc34)C2)c1 (configuration not stated),inactive: -12.2%,
CCOC(=O)C1CCN(C(c2ccccc2)c2c(O)cc(C)n(Cc3ccco3)c2=O)CC1 (configuration not stated),inactive: -0.277%,
CCc1c(C)c2ccc3c(c2oc1=O)CN(Cc1ccccc1)CO3,inactive: -36.4%,
COc1ccc(OCC(=O)Nc2nnc(S(=O)(=O)N3CCCCCC3)s2)cc1,inactive: -1.16%,
Cc1ccc(-n2c(CCC(=O)O)ccc2-c2cccs2)cc1C,inactive: 12.8%,
COc1cc(C2CC(=O)Nc3c2c(=O)[nH]c2nc4ccccc4n32)ccc1O (configuration not stated),inactive: -9.43%,
CC1(C)C(=O)N(CC(=O)Nc2ccc(Cl)cc2)c2ccccc21,inactive: -22.4%,
CCC(C)NC(=O)c1cc2c(Cl)nc3ccc(C)cc3c2s1 (configuration not stated),inactive: -5.03%,
COc1ccc(-c2nn3c(-c4ccc(OC)cc4)nnc3c3ccccc23)cc1,inactive: -0.22%,
CCc1nn2c(=O)cc(COC(=O)c3ccccc3NC(=O)COc3ccccc3C)nc2s1,inactive: -4.08%,
Cc1ccc2c(c1)cc(C(=O)Nc1ccccc1C)n2C,inactive: -5.78%,
